# Assay results: the supplement of paper PMC8728848
# Some of the results follow.
# B1: Als3-N (Candida albicans) (protein)
# chain: KTITGVFNSFNSLTWSNAATYNYKGPGTPTWNAVLGWSLDGTSASPGDTFTLNMPCVFKFTTSQTSVDLTAHGVKYATCQFQAGEEFMTFSTLTCTVSNTLTPSIKALGTVTLPLAFNVGGTGSSVDLEDSKCFTAGTNTVTFNDGGKKISINVDFERSNVDPKGYLTDSRVIPSLNKVSTLFVAPQCANGYTSGTMGFANTYGDVQIDCSNIHVGITKGLNDWNYPVSSESFSYTKTCSSNGIFITYKNVPAGYRPFVDAYISATDVNSYTLSYANEYTCAGGYWQRAPFTLRWTGYRNSDAGSNGIVIVATTRTVTDSTTAVTTLPFDPNRDKTKTIEILKPIPTTTITTSYVGVTTSYLTKTAPIGETATVIVDIPYHTTTTVTSKWTGTITSTTTHTNPTDSIDTVIVQVP
# Legend:
# Test in all cases: glycan array binding signal (z-score within array); higher = stronger binding
# Conditions in all cases: glycan notation: IUPAC condensed, linker removed
# [1] = target: GlcNAc(b1-3)Gal(b1-3)GalNAc
# Summary of the method: (§1)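 Glycan array data were curated from 3228 arrays in the Consortium for Functional Glycomics database and kept only where the protein sequence was available. Glycan names were converted to IUPAC-condensed notation, and columns mapping to the same glycan were averaged. The binding signal is a within-array Z-score, averaged across arrays of the same protein sequence at different concentrations or buffers and across linkers. Negative Z-scores can be read as non-binding.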
# GlcNAc(b1-3)Gal(b1-4)Glc = target: GlcNAc(b1-3)Gal(b1-4)Glc
# Summary of the method: as §1
# [2] = target: GlcNAc(b1-3)Gal(b1-4)GlcNAc
# Summary of the method: as §1
# [3] = target: GlcNAc(b1-3)Gal(b1-4)GlcNAc(b1-2)Man(a1-3)[GlcNAc(b1-3)Gal(b1-4)GlcNAc(b1-2)Man(a1-6)]Man(b1-4)GlcNAc(b1-4)GlcNAc
# Summary of the method: as §1
# [4] = target: GlcNAc(b1-3)Gal(b1-4)GlcNAc(b1-2)Man(a1-3)[GlcNAc(b1-3)Gal(b1-4)GlcNAc(b1-2)Man(a1-6)]Man(b1-4)GlcNAc(b1-4)[Fuc(a1-6)]GlcNAc
# Summary of the method: as §1
# [5] = target: GlcNAc(b1-3)Gal(b1-4)GlcNAc(b1-2)[GlcNAc(b1-3)Gal(b1-4)GlcNAc(b1-6)]Man(a1-6)[GlcNAc(b1-3)Gal(b1-4)GlcNAc(b1-2)Man(a1-3)]Man(b1-4)GlcNAc(b1-4)GlcNAc
# Summary of the method: as §1
# [6] = target: GlcNAc(b1-3)Gal(b1-4)GlcNAc(b1-3)Gal(b1-4)GlcNAc
# Summary of the method: as §1
# [7] = target: GlcNAc(b1-3)Gal(b1-4)GlcNAc(b1-3)Gal(b1-4)GlcNAc(b1-2)Man(a1-3)[GlcNAc(b1-3)Gal(b1-4)GlcNAc(b1-3)Gal(b1-4)GlcNAc(b1-2)Man(a1-6)]Man(b1-4)GlcNAc(b1-4)GlcNAc
# Summary of the method: as §1
# [8] = target: GlcNAc(b1-3)Gal(b1-4)GlcNAc(b1-3)Gal(b1-4)GlcNAc(b1-2)Man(a1-3)[GlcNAc(b1-3)Gal(b1-4)GlcNAc(b1-3)Gal(b1-4)GlcNAc(b1-2)Man(a1-6)]Man(b1-4)GlcNAc(b1-4)[Fuc(a1-6)]GlcNAc
# Summary of the method: as §1
# [9] = target: GlcNAc(b1-3)Gal(b1-4)GlcNAc(b1-3)Gal(b1-4)GlcNAc(b1-2)[GlcNAc(b1-3)Gal(b1-4)GlcNAc(b1-3)Gal(b1-4)GlcNAc(b1-6)]Man(a1-6)[GlcNAc(b1-3)Gal(b1-4)GlcNAc(b1-3)Gal(b1-4)GlcNAc(b1-2)Man(a1-3)]Man(b1-4)GlcNAc(b1-4)[Fuc(a1-6)]GlcNAc
# Summary of the method: as §1
# [10] = target: GlcNAc(b1-3)Gal(b1-4)GlcNAc(b1-3)Gal(b1-4)GlcNAc(b1-3)Gal(b1-4)GlcNAc(b1-2)Man(a1-3)[GlcNAc(b1-3)Gal(b1-4)GlcNAc(b1-3)Gal(b1-4)GlcNAc(b1-3)Gal(b1-4)GlcNAc(b1-2)Man(a1-6)]Man(b1-4)GlcNAc(b1-4)GlcNAc
# Summary of the method: as §1
# [11] = target: GlcNAc(b1-3)Gal(b1-4)GlcNAc(b1-3)Gal(b1-4)GlcNAc(b1-3)Gal(b1-4)GlcNAc(b1-2)Man(a1-3)[GlcNAc(b1-3)Gal(b1-4)GlcNAc(b1-3)Gal(b1-4)GlcNAc(b1-3)Gal(b1-4)GlcNAc(b1-2)Man(a1-6)]Man(b1-4)GlcNAc(b1-4)[Fuc(a1-6)]GlcNAc
# Summary of the method: as §1
# [12] = target: GlcNAc(b1-3)Gal(b1-4)GlcNAc(b1-3)Gal(b1-4)GlcNAc(b1-3)Gal(b1-4)GlcNAc(b1-2)[GlcNAc(b1-3)Gal(b1-4)GlcNAc(b1-3)Gal(b1-4)GlcNAc(b1-3)Gal(b1-4)GlcNAc(b1-6)]Man(a1-6)[GlcNAc(b1-3)Gal(b1-4)GlcNAc(b1-3)Gal(b1-4)GlcNAc(b1-3)Gal(b1-4)GlcNAc(b1-2)Man(a1-3)]Man(b1-4)GlcNAc(b1-4)[Fuc(a1-6)]GlcNAc
# Summary of the method: as §1
# [13] = target: GlcNAc(b1-3)Gal(b1-4)GlcNAc(b1-3)Gal(b1-4)GlcNAc(b1-3)Gal(b1-4)GlcNAc(b1-3)Gal(b1-4)GlcNAc(b1-2)Man(a1-3)[GlcNAc(b1-3)Gal(b1-4)GlcNAc(b1-3)Gal(b1-4)GlcNAc(b1-3)Gal(b1-4)GlcNAc(b1-3)Gal(b1-4)GlcNAc(b1-2)Man(a1-6)]Man(b1-4)GlcNAc(b1-4)GlcNAc
# Summary of the method: as §1
# [14] = target: GlcNAc(b1-3)Gal(b1-4)GlcNAc(b1-3)Gal(b1-4)GlcNAc(b1-3)Gal(b1-4)GlcNAc(b1-3)Gal(b1-4)GlcNAc(b1-2)Man(a1-3)[GlcNAc(b1-3)Gal(b1-4)GlcNAc(b1-3)Gal(b1-4)GlcNAc(b1-3)Gal(b1-4)GlcNAc(b1-3)Gal(b1-4)GlcNAc(b1-2)Man(a1-6)]Man(b1-4)GlcNAc(b1-4)[Fuc(a1-6)]GlcNAc
# Summary of the method: as §1
# [15] = target: GlcNAc(b1-3)Gal(b1-4)GlcNAc(b1-3)Gal(b1-4)GlcNAc(b1-3)Gal(b1-4)GlcNAc(b1-3)Gal(b1-4)GlcNAc(b1-2)[GlcNAc(b1-3)Gal(b1-4)GlcNAc(b1-3)Gal(b1-4)GlcNAc(b1-3)Gal(b1-4)GlcNAc(b1-3)Gal(b1-4)GlcNAc(b1-6)]Man(a1-6)[GlcNAc(b1-3)Gal(b1-4)GlcNAc(b1-3)Gal(b1-4)GlcNAc(b1-3)Gal(b1-4)GlcNAc(b1-3)Gal(b1-4)GlcNAc(b1-2)Man(a1-3)]Man(b1-4)GlcNAc(b1-4)[Fuc(a1-6)]GlcNAc
# Summary of the method: as §1
# [16] = target: GlcNAc(b1-3)Gal(b1-4)GlcNAc(b1-3)Gal(b1-4)GlcNAc(b1-3)GalNAc
# Summary of the method: as §1
# [17] = target: GlcNAc(b1-3)Gal(b1-4)GlcNAc(b1-3)GalNAc
# Summary of the method: as §1
# [18] = target: GlcNAc(b1-3)Gal(b1-4)GlcNAc(b1-3)[GlcNAc(b1-3)Gal(b1-4)GlcNAc(b1-3)]GalNAc
# Summary of the method: as §1
# [19] = target: GlcNAc(b1-3)Gal(b1-4)GlcNAc(b1-6)[Gal(b1-3)]GalNAc
# Summary of the method: as §1
# [20] = target: GlcNAc(b1-3)Gal(b1-4)GlcNAc(b1-6)[GlcNAc(b1-3)Gal(b1-3)]GalNAc
# Summary of the method: as §1
# [21] = target: GlcNAc(b1-3)Gal(b1-4)GlcNAc(b1-6)[GlcNAc(b1-3)]Gal(b1-4)GlcNAc
# Summary of the method: as §1
# GlcNAc(b1-3)GalNAc = target: GlcNAc(b1-3)GalNAc
# Summary of the method: as §1
# GlcNAc(b1-3)Man = target: GlcNAc(b1-3)Man
# Summary of the method: as §1
# [22] = target: GlcNAc(b1-3)[GlcNAc(b1-4)][GlcNAc(b1-6)]GlcNAc
# Summary of the method: as §1
# [23] = target: GlcNAc(b1-3)[GlcNAc(b1-6)]Gal(b1-4)GlcNAc
# Summary of the method: as §1
# [24] = target: GlcNAc(b1-3)[GlcNAc(b1-6)]GalNAc
# Summary of the method: as §1
# [25] = target: GlcNAc(b1-4)Gal(b1-4)GlcNAc
# Summary of the method: as §1
# GlcNAc(b1-4)GlcNAc = target: GlcNAc(b1-4)GlcNAc
# Summary of the method: as §1
# [26] = target: GlcNAc(b1-4)GlcNAc(b1-4)GlcNAc
# Summary of the method: as §1
# [27] = target: GlcNAc(b1-4)GlcNAc(b1-4)GlcNAc(b1-4)GlcNAc(b1-4)GlcNAc
# Summary of the method: as §1
# [28] = target: GlcNAc(b1-4)GlcNAc(b1-4)GlcNAc(b1-4)GlcNAc(b1-4)GlcNAc(b1-4)GlcNAc
# Summary of the method: as §1
# [29] = target: GlcNAc(b1-4)[GlcNAc(b1-6)]GalNAc
# Summary of the method: as §1
# [30] = target: GlcNAc(b1-6)Gal(b1-4)GlcNAc
# Summary of the method: as §1
# GlcNAc(b1-6)GalNAc = target: GlcNAc(b1-6)GalNAc
# Summary of the method: as §1
# [31] = target: GlcNAc6S(b1-3)Gal(b1-4)GlcNAc
# Summary of the method: as §1
# Kdn(a2-3)Gal(b1-3)GalNAc = target: Kdn(a2-3)Gal(b1-3)GalNAc
# Summary of the method: as §1
binder,measurement,setting,value
B1,glycan array binding signal (z-score),[1],0.556
same,glycan array binding signal (z-score),GlcNAc(b1-3)Gal(b1-4)Glc,-0.303
same,glycan array binding signal (z-score),[2],-0.277
same,glycan array binding signal (z-score),[3],-0.213
same,glycan array binding signal (z-score),[4],-0.099
same,glycan array binding signal (z-score),[5],0.753
same,glycan array binding signal (z-score),[6],-0.449
same,glycan array binding signal (z-score),[7],3.11
same,glycan array binding signal (z-score),[8],0.106
same,glycan array binding signal (z-score),[9],2.36
same,glycan array binding signal (z-score),[10],-0.109
same,glycan array binding signal (z-score),[11],0.254
same,glycan array binding signal (z-score),[12],3.08
same,glycan array binding signal (z-score),[13],-0.115
same,glycan array binding signal (z-score),[14],0.273
same,glycan array binding signal (z-score),[15],0.074
same,glycan array binding signal (z-score),[16],-0.182
same,glycan array binding signal (z-score),[17],0.072
same,glycan array binding signal (z-score),[18],0.158
same,glycan array binding signal (z-score),[19],-0.116
same,glycan array binding signal (z-score),[20],0.124
same,glycan array binding signal (z-score),[21],-0.082
same,glycan array binding signal (z-score),GlcNAc(b1-3)GalNAc,-0.046
same,glycan array binding signal (z-score),GlcNAc(b1-3)Man,-0.197
same,glycan array binding signal (z-score),[22],-0.289
same,glycan array binding signal (z-score),[23],-0.324
same,glycan array binding signal (z-score),[24],-0.033
same,glycan array binding signal (z-score),[25],-0.165
same,glycan array binding signal (z-score),GlcNAc(b1-4)GlcNAc,-0.22
same,glycan array binding signal (z-score),[26],-0.099
same,glycan array binding signal (z-score),[27],-0.219
same,glycan array binding signal (z-score),[28],-0.176
same,glycan array binding signal (z-score),[29],-0.345
same,glycan array binding signal (z-score),[30],-0.196
same,glycan array binding signal (z-score),GlcNAc(b1-6)GalNAc,-0.183
same,glycan array binding signal (z-score),[31],-0.1
same,glycan array binding signal (z-score),Kdn(a2-3)Gal(b1-3)GalNAc,-0.01
